# Screen size: about 230,000 compounds; fewer than 10 were called active. Inconclusive results, whose numbers are uncertain, are shown with a selection of clear calls. Calls come from the whole dose curve; as a rule, active = well fitted curve in the direction sought with a large enough effect; inconclusive = small, poorly fitted or top-dose-only effect, or effect the other way, or another doubt; inactive = no such curve, though single readings can be large or run the other way. No potency is given beside an inconclusive call; the fits are too rough.
# Biological target: Runt-related transcription factor 1 (Homo sapiens) + Core-binding factor subunit beta (Homo sapiens) (UniProt Q01196+Q13951)
# Experiment: qHTS Assay for Compounds Blocking the Interaction Between CBF-beta and RUNX1 for the Treatment of Acute Myeloid Leukemia; for activity, negative = inhibition: % of control where 0% means no effect
# Details: AlphaScreen CBFb-His/RUNX1-biotin binding, biochemical; activity, negative = inhibition: at 59.8 µM (top of the series) unless noted
# How it was run: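 AlphaScreen binding: CBFb-His and RUNX1-biotin (30 nM each) preincubated 20 min, compound added for 15 min, then nickel and streptavidin beads for 90 min, all at room temperature. Disruption of the interaction by any mechanism counts as activity.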
SMILES,Potency,"activity, negative = inhibition"
N/C(Cc1ccc(Cl)cc1)=N\OC(=O)c1cccc2ccccc12,"inconclusive [activator, single point]",–
O=C(NCc1ccco1)c1ccc([N+](=O)[O-])o1,"inconclusive [inhibitor, single point]",–
CCCCC(=O)Nc1nnc(-c2ccco2)o1,"inconclusive [activator, single point]",–
CCOC(=O)Cc1c(C)nc2c(-c3ccc(Cl)cc3)cnn2c1C,"inconclusive [activator, partial curve]",–
COc1cccc(NC(=O)CN(c2ccc([N+](=O)[O-])cc2)S(=O)(=O)c2ccccc2)c1,–,inactive: -12.5%
O=C(NC1CCCCCC1)c1cc(S(=O)(=O)N2CCOCC2)ccc1N1CCCCC1,"inconclusive [inhibitor, single point]",–
CCCCCCCCCCCCCCCC[n+]1ccccc1,"inconclusive [activator, partial curve]",–
COc1ccc(-c2nc(C#N)c(N3CCCCCC3)o2)cc1OC,"inconclusive [inhibitor, single point]",–
Cc1sc(NC(=O)CSc2nnc(CCNC(=O)c3cccs3)n2C)nc1-c1ccccc1,–,inactive: 7.23%
CCC(C)(C)C(=O)O[C@@H]1C[C@@H](C)C=C2C=C[C@H](C)[C@H](CC[C@@H]3C[C@@H](O)CC(=O)O3)[C@H]21,–,inactive: 9.52% [at 21.7 µM]
COc1ccc(CCNC(=O)c2c(N)n(CCN3CCOCC3)c3nc4ccccc4nc23)cc1OC,"inconclusive [activator, single point]",–
NC(=O)CC(NC(=O)Cc1cccc2ccccc12)c1ccc(NCCOc2ccccc2)c([N+](=O)[O-])c1 (stereo not given),–,inactive: 0.425%
CC1CCc2nn(CC(=O)NCc3ccco3)cc2C1 (stereo not given),–,inactive: 1.52%
COc1cc([N+](=O)[O-])ccc1NC(=O)CSc1nc2ccccc2n1-c1ccccc1,–,inactive: -20.9%
O=C(CCc1ccc(O)c(O)c1)NNC(=S)NCCc1ccccc1,–,inactive: -2.83%
COc1ccc(S(=O)(=O)C(C#N)c2nc3ccccc3nc2N2CCCC(C)C2)cc1 (stereo not given),"inconclusive [inhibitor, single point]",–
NC(=O)[C@H](Cc1cc2ccccc2s1)NC(=O)[C@@H]1CC2(CC(c3cccc(NC(=O)[C@@H]4CCC(=O)N4)c3)=NO2)CN1C(=O)/C=C/Sc1ccccc1 (stereo not given in full),"inconclusive [inhibitor, single point]",–
Cc1ccc(-n2cc(-c3ccc([N+](=O)[O-])cc3)[nH]c2=S)c(C)c1,"inconclusive [inhibitor, single point]",–
CCOC(=O)C1CCN(c2ncnc3c2cnn3-c2ccc(Cl)cc2)CC1,"inconclusive [inhibitor, single point]",–
O=C(/C=C/C=C/c1ccccc1)CC1(O)C(=O)N(CCc2ccccc2)c2ccccc21 (stereo not given),–,inactive: -15.9%
CN(C)c1ccc(/C=N/N2C(=O)c3ccccc3C2=O)cc1,–,inactive: 13.8%
COc1ccc2cc1Oc1ccc(cc1)CC1c3cc(c(OC)cc3CCN1C)Oc1c(OC)c(OC)c(OC)c3c1C(C2)N(C)CC3 (stereo not given),"inconclusive [inhibitor, partial curve]",–
CC1=NN(c2ccc(C(F)(F)F)cn2)C(=O)C1,"inconclusive [inhibitor, partial curve]",–

SMILES,Potency,"activity, negative = inhibition"
Nc1nc(SCc2ccc([N+](=O)[O-])cc2)c2ncn([C@@H]3O[C@H](CO)[C@H](O)[C@H]3O)c2n1,"inconclusive [inhibitor, partial curve]",–
COc1ccc2cc(/C=N/NC(=O)c3ccc(CN(c4cccc(Cl)c4Cl)S(C)(=O)=O)cc3)c(Cl)nc2c1,–,inactive: 1.2%
COc1cc(/C=N/NC(=O)C(=O)/C=C2\NC3(CCCC3)Cc3ccccc32)ccc1O,"inconclusive [inhibitor, single point]",–
COc1ccc(-c2nc3ccccn3c2CN2CCN(c3ccccc3F)CC2)cc1,"inconclusive [inhibitor, single point]",–
CCOc1nc(SCCOc2ccccc2)nc(N(C)C)n1,"inconclusive [activator, partial curve]",–
COc1ccc(OC)c(C2=NNC(=NCc3ccc4c(c3)OCO4)SC2)c1,"inconclusive [inhibitor, partial curve]",–
O=C(c1cc(-c2ccc(Cl)cc2Cl)on1)N1CCN(C(=O)c2ccco2)CC1,–,inactive: 0.511%
C/C(=N\NC(=S)Nc1ccccc1C)C1Cc2ccccc2C(=O)O1 (stereo not given),–,inactive: -0.229%
Cc1ccc(O)c(C2=Nc3ccccc3N=C(c3cccc([N+](=O)[O-])c3)C2)c1,"inconclusive [inhibitor, single point]",–
CC1(C)CC2=C(CO1)C(=S)NC(c1ccccc1)N2CC1CCCO1 (stereo not given),–,inactive: 9.02%
CC(=O)NS(=O)(=O)c1ccc(NC(=S)NC(=O)CC(C)C)cc1,–,inactive: 4.03%
COC(=O)Cn1c2ccc(OC)cc2c2nc3ccccc3nc21,–,inactive: 6.2%
O=C(NC(=S)Nc1ccc2c(c1)OCO2)c1ccccc1,–,inactive: -14.3%
COC(=O)c1ccccc1NC(=O)c1cccc(COc2ccccc2Cl)c1,"inconclusive [activator, partial curve]",–
CCSc1nnc(NC(=O)[C@@H](NC(=O)c2ccccc2F)C(C)C)s1,–,inactive: -0.398%
O=C1C(=O)c2cccc3cccc1c23,–,inactive: 5.37%
COc1ccccc1NC(=S)N(Cc1ccccc1)Cc1cccs1,"inconclusive [activator, partial curve, poor fit]",–
Cc1ccc(CN2CCc3c(OCc4ccc(F)cc4)cccc3C2=O)cc1,"inconclusive [activator, single point]",–
N#Cc1cccc(Cn2cc(C(F)(F)F)ccc2=O)c1,"inconclusive [activator, single point]",–
COCCN(Cc1cc2cc(C)ccc2n2nnnc12)C(=S)Nc1cccc(C)c1,–,inactive: -18.5%
COc1ccc(Nc2nc3c(C)cccc3cc2C#N)cc1,"inconclusive [activator, full curve, poor fit]",–
CCCN1CCO[C@@H]2c3cc(O)ccc3OC[C@H]21,inactive,–

# — PubChem BioAssay AID1477 (National Center for Advancing Translational Sciences (NCATS), 2009)
